Where “and” joins values, the source holds several entries; their conditions need not be identical. Equal entries are not always repeated. Structures can show the parent of a compound that is named as a salt. Screen size: about 5,800 compounds; about 620 (11%) showed activity.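 Rule for the calls: active = score above a cut-off or among the top three wells of a plate; in these data no inactive exceeds 0.85.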 The list shows a part of the results, in another mix than the full data. A value given as a limit tells only on which side of the number the result lay.

This assay relates to primary human hepatic stellate cells (donor 1). Briefly: scaled lipid accumulation score (0 = DMSO-like, 1 = nortriptyline-like); higher = stronger HSC inactivation (lipid re-accumulation), active = hit call of the paper. The note with it: 48 h. How it is done: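 Primary lipid accumulation screen in primary human hepatic stellate cell myofibroblasts (donor 1, passage 8) in 384-well plates. 100 nL of library compound was pin-transferred into 30 µL medium in duplicate, and cells were treated for 48 h. The 'Scaled' score combines distance from plate baseline, toxicity and reproducibility penalties, and is normalised to nortriptyline (positive) and DMSO (negative) controls on each plate. A hit is defined as scaled >0.85 or among the top 3 wells per plate.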

Setting [1] is: library stock concentration: 3.33 mM.
The mark [2] stands for this setting: library stock concentration: 10 mM.
[3] abbreviates: library stock concentration: 400 uM.
Where [4] appears, read: library stock concentration: 2 mM.
[5] abbreviates: library stock concentration: 1 mM.

In the case of `CC(=O)N(CC(C)C(=O)O)c1c(I)cc(I)c(N)c1I` (stereo not drawn) [Iocetamic acid], the “scaled lipid accumulation score” value was inactive: ≤ 0. Take `O=C1CCc2cc(OCCCCc3nnnn3C3CCCCC3)ccc2N1` [Cilostazol]: the “scaled lipid accumulation score” value is inactive: ≤ 0. Also, under setting [1], the “scaled lipid accumulation score” value is inactive: ≤ 0. In addition, under “library stock concentration: 5.4 mM”, the “scaled lipid accumulation score” value was inactive: ≤ 0. For `CCS(=O)(=O)CCn1c([N+](=O)[O-])cnc1C`, under setting [2], the “scaled lipid accumulation score” value was inactive: ≤ 0. On to `CCS(=O)(=O)CCn1c([N+](=O)[O-])cnc1C` [Tinidazole], for which the “scaled lipid accumulation score” value is inactive: ≤ 0. The “scaled lipid accumulation score” value under setting [1] is inactive: ≤ 0. In addition, the “scaled lipid accumulation score” value (library stock concentration: 8.1 mM) is inactive: ≤ 0. Under setting [2], the “scaled lipid accumulation score” value is inactive: ≤ -0.001 and inactive: ≤ 0. As to `N#C[C@@H]1C[C@@H]2C[C@@H]2N1C(=O)[C@@H](N)C12CC3CC(CC(O)(C3)C1)C2`, the “scaled lipid accumulation score” value under setting [2] was inactive: ≤ 0. `N#C[C@@H]1C[C@@H]2C[C@@H]2N1C(=O)[C@@H](N)C12CC3CC(CC(O)(C3)C1)C2` [Saxagliptin]: the “scaled lipid accumulation score” value is, setting by setting: under setting [1], inactive: ≤ 0; under setting [2], inactive: ≤ 0. For `CCCCOc1cc(C(=O)NCCN(CC)CC)c2ccccc2n1` [Dibucaine], the “scaled lipid accumulation score” value was inactive: 0.284.

As to `CCCCOc1cc(C(=O)NCCN(CC)CC)c2ccccc2n1` [Dibucaine HCl], the “scaled lipid accumulation score” value under setting [1] was inactive: 0.253.

As for `CCCCOc1cc(C(=O)NCCN(CC)CC)c2ccccc2n1` [Dibucaine hydrochloride], the “scaled lipid accumulation score” value (library stock concentration: 5.3 mM) was inactive: 0.662 and the “scaled lipid accumulation score” value under setting [2] is inactive: ≤ 0. As to `O=P(O)(O)C(Cl)(Cl)P(=O)(O)O` [Clodronic acid], the “scaled lipid accumulation score” value under setting [2] was inactive: ≤ -0.07. Turning to `Oc1ccc(-c2nc3cc(O)cc(Br)c3o2)cc1`, under setting [2], the “scaled lipid accumulation score” value was inactive: 0.005. `Cc1coc2c1C(=O)C(=O)c1c-2ccc2c(C)cccc12` [Tanshinone I]: the “scaled lipid accumulation score” value was inactive: ≤ 0 under setting [1] and inactive: ≤ 0 under setting [2]. Turning to `CCC(=O)Nc1ccc2ncnc(Nc3cccc(Br)c3)c2c1`, the “scaled lipid accumulation score” value under setting [1] was inactive: ≤ 0. With `CCC1=C(C)CN(C(=O)NCCc2ccc(S(=O)(=O)NC(=O)N[C@H]3CC[C@H](C)CC3)cc2)C1=O`, under setting [2], the “scaled lipid accumulation score” value was inactive: ≤ 0. `CCC1=C(C)CN(C(=O)NCCc2ccc(S(=O)(=O)NC(=O)N[C@H]3CC[C@H](C)CC3)cc2)C1=O` [Glimepiride]: the “scaled lipid accumulation score” value was inactive: 0.026. The “scaled lipid accumulation score” value under setting [1] is inactive: ≤ 0. Also, the “scaled lipid accumulation score” value under setting [2] is inactive: ≤ 0 and inactive: ≤ -0.001. With `Cc1ccccc1-n1c(Cn2nc(-c3cccc(O)c3)c3c(N)ncnc32)nc2cccc(C)c2c1=O`, the “scaled lipid accumulation score” value runs as follows: under setting [3], inactive: 0.047; under setting [4], inactive: ≤ -0.005; under setting [1], inactive: ≤ 0; under setting [2], inactive: ≤ 0 and inactive: ≤ -0.005.

In the case of `COc1cc(Nc2nc3ccccc3nc2NS(=O)(=O)c2ccc(NC(=O)c3ccc(C)c(OC)c3)cc2)cc(OC)c1` [pseudoXL765], the “scaled lipid accumulation score” value is, setting by setting: (library stock concentration: 80 uM) inactive: ≤ -0.009; under setting [3], inactive: ≤ -0.009; under setting [4], inactive: ≤ -0.009; under setting [2], inactive: 0.161.

Consider `COc1cc(Nc2nc3ccccc3nc2NS(=O)(=O)c2ccc(NC(=O)c3ccc(C)c(OC)c3)cc2)cc(OC)c1`, for which the “scaled lipid accumulation score” value by setting is: under setting [1], inactive: ≤ 0; under setting [2], inactive: 0.145.

With `C[C@@]12C[C@@]3(O)O[C@@H](O1)[C@]1(COC(=O)c4ccccc4)[C@H]3C[C@@]12O[C@@H]1O[C@H](CO)[C@@H](O)[C@H](O)[C@H]1O` [Paeoniflorin], the “scaled lipid accumulation score” value runs as follows: under setting [1], inactive: ≤ 0; under setting [2], inactive: ≤ 0. For `CCCCC[C@H](O)/C=C/[C@H]1[C@H](O)CC(=O)[C@@H]1C/C=C/CCCC(=O)Oc1ccc(NC(C)=O)cc1` [Prostaglandin E2 p-acetamidophenyl ester], the “scaled lipid accumulation score” value under setting [5] was inactive: ≤ 0. Consider `CCCCn1c(=O)c2c(ncn2CC(C)=O)n(CCCC)c1=O` [Denbufylline], for which, under “library stock concentration: 6.2 mM”, the “scaled lipid accumulation score” value was inactive: ≤ -0.006. For `Cn1cc(C2=C(c3ccc(Cl)cc3Cl)C(=O)NC2=O)c2ccccc21`, the “scaled lipid accumulation score” value under setting [2] was active: 1.03. Still for that read-out and setting: next, `COc1cc(OC)cc(-c2cc3cnc(N)nc3nc2NC(=O)NC(C)(C)C)c1`: inactive: ≤ 0.

`Cc1c[nH]c(=O)n(CCCN2CCN(c3ccccc3OCC(F)(F)F)CC2)c1=O`: under setting [2], the “scaled lipid accumulation score” value was inactive: 0.093. For the compound `Nc1ncnc2c1c(-c1cnc3[nH]ccc3c1)nn2C1CCCC1`, the “scaled lipid accumulation score” value runs as follows: under setting [1], inactive: ≤ 0; under setting [2], inactive: 0.452. `CCCCC/C=C\C/C=C\C/C=C\C/C=C\CCCC(=O)O[C@H](COCCCCCCCCCCCCCCCC)COP(=O)([O-])OCC[N+](C)(C)C` [Arachidonoyl-PAF]: the “scaled lipid accumulation score” value under setting [5] was inactive: ≤ -0.021.

As to `COc1ccc2cc([C@@H](C)C(=O)O)ccc2c1` [(R) -Naproxen sodium salt], the “scaled lipid accumulation score” value was inactive: ≤ 0.

For the compound `Nc1nc(=O)c2c([nH]1)NC[C@@H](CNc1ccc(C(=O)N[C@@H](CCC(=O)O)C(=O)O)cc1)N2C=O` [Folinic acid calcium salt], the “scaled lipid accumulation score” value is inactive: ≤ 0. For the compound `CCCCc1oc2ccccc2c1C(=O)c1cc(I)c(OCCN(CC)CC)c(I)c1.Cl` [Amiodarone HCl], the “scaled lipid accumulation score” value under setting [2] is active: 1.27. Turning to `CC(C)NCC(O)COc1cccc2ccccc12` (stereo not drawn) [Propranolol], the “scaled lipid accumulation score” value (library stock concentration: 7.7 mM) was inactive: 0.676. Take `CC(C)NCC(O)COc1cccc2ccccc12` (stereo not drawn) [Propranolol HCl]: the “scaled lipid accumulation score” value was inactive: ≤ 0 under setting [1] and inactive: 0.555 under setting [2]. On to `CC(C)NCC(O)COc1cccc2ccccc12` (stereo not drawn) [Propranolol hydrochloride], for which the “scaled lipid accumulation score” value was inactive: 0.378. Further, the “scaled lipid accumulation score” value under setting [2] was inactive: 0.74.

The record behind these values is the supplement of paper PMC9135407.
